Reference: publication PMC12602705
Where a chain is given by its changes, count along the chain named. Like-named read-outs stand apart in the source and are kept apart here. Results are given in words; binding and its absence hold for the method and conditions named. In cells and extracts the contact can be indirect. Some results given as binding are weak or reduced against the parent protein; the word gives no strength. For some assays here: Tags and fused reporters may be left off the sequences shown. Blank lines part the entries; values can stand above or below the molecule they belong to.

Chains of the proteins cited; added tags and fusions are not shown.
UniProt Q9UDY8: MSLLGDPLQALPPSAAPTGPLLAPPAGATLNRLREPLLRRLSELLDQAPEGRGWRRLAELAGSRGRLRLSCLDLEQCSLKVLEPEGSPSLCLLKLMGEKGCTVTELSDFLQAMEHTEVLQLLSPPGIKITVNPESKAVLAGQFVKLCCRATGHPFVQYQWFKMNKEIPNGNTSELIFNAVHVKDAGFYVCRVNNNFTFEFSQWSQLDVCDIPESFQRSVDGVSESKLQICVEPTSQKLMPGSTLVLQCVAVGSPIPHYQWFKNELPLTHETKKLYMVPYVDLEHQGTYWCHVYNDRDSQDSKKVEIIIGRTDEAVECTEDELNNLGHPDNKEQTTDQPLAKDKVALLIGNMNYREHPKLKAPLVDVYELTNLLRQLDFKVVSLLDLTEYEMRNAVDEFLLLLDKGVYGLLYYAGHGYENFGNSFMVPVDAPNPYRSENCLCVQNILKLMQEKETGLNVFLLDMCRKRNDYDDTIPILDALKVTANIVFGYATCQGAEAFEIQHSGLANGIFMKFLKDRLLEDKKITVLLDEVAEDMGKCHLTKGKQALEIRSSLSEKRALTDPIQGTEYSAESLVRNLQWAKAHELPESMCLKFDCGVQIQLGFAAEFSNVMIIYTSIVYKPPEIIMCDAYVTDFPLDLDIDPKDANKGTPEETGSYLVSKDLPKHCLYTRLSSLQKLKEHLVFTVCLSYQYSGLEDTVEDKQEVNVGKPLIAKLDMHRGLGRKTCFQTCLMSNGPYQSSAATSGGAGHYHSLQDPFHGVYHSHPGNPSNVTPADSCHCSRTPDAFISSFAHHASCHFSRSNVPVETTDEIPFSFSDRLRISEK

How the values were obtained:
[1] = target: T1, Flag-Strep-tagged (ST) BCL10 WT (UniProt O95999); test: pull-down; BCL10 KO Jurkat T cells reconstituted with Strep-tagged BCL10 WT or mutants, untreated or stimulated with P/I; 3 x 10^7 cells lysed in co-IP buffer; Strep-Tactin Sepharose pulldown (Strep-PD) at 4 °C overnight; endogenous MALT1 and CARD11 detected by Western blot
T1 sequence: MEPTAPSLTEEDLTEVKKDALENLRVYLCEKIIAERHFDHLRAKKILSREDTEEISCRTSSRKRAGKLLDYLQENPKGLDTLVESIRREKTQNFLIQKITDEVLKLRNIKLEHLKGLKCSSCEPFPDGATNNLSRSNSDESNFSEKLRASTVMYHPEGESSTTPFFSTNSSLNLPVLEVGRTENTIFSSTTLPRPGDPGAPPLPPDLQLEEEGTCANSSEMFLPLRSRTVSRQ

[2] = target: T2, BCL10 5xK/R (K90, K98, K105, K110, K115 to R) (UniProt O95999); test: as above
T2 sequence: T1 sequence with K90R, K98R, K105R, K110R, K115R

[3] = target: T3, Strep-tagged (ST) BCL10 L104R (UniProt O95999); test: as above
T3 sequence: T1 sequence with L104R

[4] = target: T4, Strep-tagged (ST) BCL10 KK31/63RR (UniProt O95999); test: as above
T4 sequence: T1 sequence with K31R, K63R

BCL10 KK118/146RR = target: T5, BCL10 KK118/146RR (UniProt O95999); test: as above
T5 sequence: T1 sequence with K118R, K146R

[5] = target: T6, BCL10 6xK/R (K90, K98, K105, K110, K115 and K118 to R) (UniProt O95999); test: as above
T6 sequence: T1 sequence with K90R, K98R, K105R, K110R, K115R, K118R

[6] = target: T7, BCL10 WT (3xFLAG-BCL10 WT and HA-BCL10 WT) (UniProt O95999); test: co-IP; HEK293T cells, transient co-expression of Flag-tagged BCL10 (WT or mutant) with HA-BCL10 WT or HA-MALT1 WT; lysis in co-IP buffer (25 mM HEPES pH 7.5, 150 mM NaCl, 0.2% NP-40, 10% glycerol, 1 mM DTT); anti-Flag-M2 IP overnight at 4 °C, Protein G Sepharose; Western blot
T7 sequence: T1 sequence

[7] = target: T8, Flag-tagged BCL10 KKK17/31/63RRR (UniProt O95999); test: as above
T8 sequence: T1 sequence with K17R, K31R, K63R

[8] = target: T7, BCL10 WT (3xFLAG-BCL10 WT and HA-BCL10 WT); test: as above; remark: listed apart in the source
[9] = target: T9, Flag-tagged BCL10 KK31/63RR (UniProt O95999); test: as above
T9 sequence: T1 sequence with K31R, K63R

[10] = target: T10, Flag-tagged BCL10 R42E, O95999; test: as above; conditions: remark: other sources report otherwise
T10 chain: T1 sequence with R42E

binding [1]: binds
binding [2]: binds
binding [3]: no binding
binding [4]: binds
binding (BCL10 KK118/146RR): binds
binding [5]: binds
Molecule: MALT1 (endogenous, Jurkat T cells) (from UniProt Q9UDY8 1-824)

binding [6]: binds
binding [7]: binds
Molecule: HA-tagged MALT1 WT (from UniProt Q9UDY8 1-824)

binding [8]: binds
binding [9]: binds
B1: BCL10 WT (3xFLAG-BCL10 WT and HA-BCL10 WT) (protein, UniProt O95999 1-233)
chain: T1 sequence

binding [10]: binds
B2: BCL10 WT (3xFLAG-BCL10 WT and HA-BCL10 WT), O95999 1-233 (protein)
chain: T1 sequence
